In all, about 110,000 compounds were measured (“z-score”: median about -0.1, highest 2% from about 2 on). This is one part of the list. The source made the active and inactive calls.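 How the source made its calls: active means z-score in the third read window above 3 or below -3; inactive means the rest.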

The target in the assay is Metabotropic glutamate receptor 8 (Rattus norvegicus) (UniProt P70579). Kind of assay: rat mGluR8 modulators via GIRK flux, primary screen, cell-based, thallium flux, HTS (AID 488969). As to conditions: HEK293 rat mGluR8, GIRK (G protein-gated inwardly rectifying potassium channel) thallium flux, FluoZin2; at 10 µM; stronger effect = higher value.
Chain of UniProt P70579 (P70579 whole entry, looked up): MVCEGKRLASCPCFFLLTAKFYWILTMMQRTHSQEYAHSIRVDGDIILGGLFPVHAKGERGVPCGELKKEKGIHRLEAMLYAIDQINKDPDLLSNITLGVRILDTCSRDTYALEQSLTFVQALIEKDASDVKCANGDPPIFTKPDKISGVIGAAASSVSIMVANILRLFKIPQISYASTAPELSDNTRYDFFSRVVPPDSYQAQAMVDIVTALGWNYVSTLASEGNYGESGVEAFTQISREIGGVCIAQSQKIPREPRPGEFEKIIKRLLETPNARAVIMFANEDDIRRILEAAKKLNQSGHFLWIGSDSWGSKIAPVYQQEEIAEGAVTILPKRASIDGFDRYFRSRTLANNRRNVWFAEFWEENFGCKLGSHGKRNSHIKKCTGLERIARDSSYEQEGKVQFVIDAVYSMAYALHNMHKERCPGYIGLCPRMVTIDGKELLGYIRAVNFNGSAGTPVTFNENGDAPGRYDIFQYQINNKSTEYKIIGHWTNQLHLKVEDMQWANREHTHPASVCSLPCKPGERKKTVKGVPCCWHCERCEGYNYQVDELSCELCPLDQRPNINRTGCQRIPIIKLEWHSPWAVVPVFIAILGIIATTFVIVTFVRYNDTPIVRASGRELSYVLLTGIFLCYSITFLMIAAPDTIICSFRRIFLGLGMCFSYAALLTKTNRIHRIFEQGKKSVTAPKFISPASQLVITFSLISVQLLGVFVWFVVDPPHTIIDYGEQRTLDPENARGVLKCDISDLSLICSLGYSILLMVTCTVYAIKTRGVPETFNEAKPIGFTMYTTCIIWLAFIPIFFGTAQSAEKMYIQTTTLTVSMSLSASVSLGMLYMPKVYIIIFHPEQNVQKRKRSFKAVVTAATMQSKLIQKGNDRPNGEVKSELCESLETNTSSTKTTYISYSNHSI
`O=C(N/N=C/c1c(O)n(CCc2ccccc2)c(=O)[nH]c1=O)c1ccncc1`: the z-score was 0.402.
`CC(c1ccccc1)n1cncc1C(=O)N1CCCC1=O` (stereo not drawn) gave a z-score of -0.104.
`O=C1NC(=S)N(C2CC2)C(=O)/C1=C/c1ccc2c(c1)CCN2CCCCl`: the z-score was -0.658.
Take `CC(=NCCCO)c1c(O)n(Cc2ccccc2)c(=O)[nH]c1=O`: the z-score was 0.473.
The compound `Cn1c(O)c(/C=C/C=Nc2ccccc2)c(=O)n(C)c1=O` yielded a z-score of -0.542.
On to `COc1ccc(P2(=O)Nc3ccccc3N2)cc1`, for which the z-score was -0.253.
`Cc1ccc2nc(-c3ccncc3)cc(C(=O)N3CCC4(CC3)OCCO4)c2c1`: the z-score was determined as 0.433.
For the compound `Fc1cccc(CCNCc2ccccn2)c1`, the z-score was -0.603.
`Cc1ccc(CCN2CC(C(=O)N3CCC4(CC3)OCCO4)CC2=O)cc1` (stereo not drawn) showed a z-score of 0.645.
On to `CC(=O)c1c(C)n(CC2CCCO2)c2ccc(O)cc12` (stereo not drawn), for which the z-score is -0.37.
Take `Cn1c(O)c(/C=C/C=Nc2ccccc2)c(=O)n(C)c1=S`: the z-score was -0.58.
For `Cn1c(O)c(C(=O)c2ccccc2)c(=O)n(C)c1=O`, the z-score was -0.463.
As to `O=C(CNC(=O)c1ccc(Br)cc1)Nc1ccc(Br)cc1C(=O)c1ccccc1`, the z-score is -0.0287.
The figure for `CC(Cc1ccccc1)NC(=O)NC(C)Cc1ccccc1` (stereo not drawn) is -0.082; for `Cc1ccc(-n2c(/C=C/c3ccc4c(c3)OCO4)nc3ccccc3c2=O)cc1` it is -0.143; for `Fc1ccc(CCNCc2cccc(Cl)c2)cc1` it is -0.0585.
`O=c1[nH]c(=O)n(-c2ccc(F)cc2)c(O)c1C=Nc1ccccc1N1CCCC1`: the z-score was 1.65.
Turning to `O=c1[nH]c(=S)n(C2CC2)c(O)c1/C=N/Nc1ccccc1`, the z-score was -0.162.
For `COc1ccccc1N1CCN(Cc2cccc(OC)c2O)CC1`, the z-score is 0.664.
Compound `CN(C)c1ccc(/C=C2\CC3C4CC=C5CC(O)CCC5(C)C4CCC3(C)C2=O)cc1` (stereo not drawn) showed a z-score of -0.0238.
As for `O=C(CCCOc1ccc(Cl)cc1Cl)N1CCC2(CC1)OCCO2`, the figure is -0.438; as for `CN1C(=O)N(C)C(=O)C2(Cc3ccccc3N3CCOCC32)C1=O` (stereo not drawn), -0.0123.
The figure for `CNC(=S)N/N=C1\C2CN3CCN(C2)CC1(c1ccccc1)C3` is -0.184; for `Cc1ccc2c(c1)C1CN(C)CCC1N2C(=O)COc1ccc(S(=O)(=O)N2CCOCC2)cc1` (stereo not drawn) it is -1.68.
As for `Cc1ccccc1NC1=NCCCS1`, the figure is 0.604; as for `COc1cccc(-n2c(-c3ccoc3)nc3ccccc3c2=O)c1`, -0.34.
`O=P(Nc1ccccc1)(Nc1ccccc1)Oc1cccc(Cl)c1` gave a z-score of 0.175.
In the case of `Oc1ccc(Cl)cc1CN1CCN(Cc2ccccc2)CC1`, the z-score was -0.13.
Compound `CN(C)C(=O)Oc1ccc(C(=O)c2ccccc2)cc1` returned a z-score of 0.679.
The figure for `Cc1cc(Cl)ccc1OCC(=O)O` is -0.104; for `COC(=O)c1cc(C(O)(C(=O)OC)C(F)(F)F)c(/N=C/N(C)C)s1` (stereo not drawn) it is -0.0518.
Regarding `CCc1nc2ccc(Br)cc2c(=O)n1-c1ccccc1C(F)(F)F`, the z-score was -0.44.
As for `CCOC(=O)c1c(NC(=O)C(c2ccccc2)c2ccccc2)sc2c1C1CCN2CC1`, the figure is -0.566; as for `CCC(C(=O)N1CCC2(CC1)OCCO2)c1ccccc1` (stereo not drawn), 0.0844.
As for `O=C(CCN1C(=O)COc2ccccc21)N1CCC2(CC1)OCCO2`, the figure is 0.403.
`Cc1cc(/C=C2/C(=O)NC(=O)N(Cc3ccco3)C2=O)c(C)n1-c1ccccc1` yielded a z-score of 1.04.
As for `N#Cc1cc2c(nc1SCC(=O)Nc1cc(Cl)cc(Cl)c1)C1CCN2CC1`, the figure is 0.112.
Consider `CCCCN1C(=O)/C(=C/c2ccc(N(C)C)cc2)C(=O)N(Cc2ccco2)C1=O`, for which the z-score came out at 0.62.
In turn, `CC(C)NCC(O)c1ccc(C2CCCC2)cc1` (stereo not drawn) had a z-score of 0.639.
The figure for `COc1cc(-n2c(=S)[nH]c3ccccc3c2=O)c(Cl)cc1Cl` is active: 6.65.
With `CC(=O)Nc1ccccc1OP1(=O)COc2ccccc2OC1`, the z-score came to 0.706.
For `CCc1ccc(/C=C(/C#N)C(N)=S)cc1`, the z-score was found to be 0.959.
On to `Cc1cccc(C)c1OP(N)(=O)OCC(F)(F)F` (stereo not drawn), for which the z-score was -0.0205.
The compound `CN1Cc2cccnc2N(C)Cc2cc(Cl)ccc21` registered a z-score of -0.242.
Turning to `CNCCCc1ccccc1`, the z-score was 0.132.
As for `O=C(NCc1ccccn1)c1ccccc1Cl`, the figure is 0.931; as for `c1cncc(C2CCCCN2Cc2ccc3c(c2)OCO3)c1` (stereo not drawn), 0.00396.
The figure for `CC(C)CC12CN3CCN(CC(C3)/C1=N/O)C2` is -0.566.
In turn, `O=C(NCC(c1cccnc1)N1CCN(c2ccc(F)cc2)CC1)Oc1ccccc1` (stereo not drawn) registered a z-score of 0.0787.
In the case of `CCN1CCN(c2nc3c(c(=O)[nH]2)CCCC3)CC1`, the z-score is -0.0782.
As for `Cc1ccc(-c2nc3ccccc3c(=O)n2-n2cccc2)cc1`, the z-score came out at 0.816.
In the case of `O=C(Nc1ccc(OC(=O)N2CCCC2)cc1)N1CCOCC1`, the z-score was 0.945.
`Clc1ccc(N2CCN(Cc3ccccc3Cl)CC2)cc1` showed a z-score of -0.265.
The figure for `O=c1[nH]c(=S)n(Cc2ccc(F)cc2)c(O)c1/C=N/N1CCCCCC1` is 0.0471; for `CCC(=Nc1ccc(OC)cc1OC)c1c(O)[nH]c(=O)[nH]c1=O` it is 0.301; for `O=C(Cn1ncc2c3ccccc3n(Cc3ccc(F)cc3)c2c1=O)N1CCC2(CC1)OCCO2` it is -0.798.
`O=C(O)c1nonc1-c1nonc1C(=O)O`: the z-score was 0.86.
With `O=c1[nH]c(=S)n(Cc2ccc(F)cc2)c(O)c1C=NCc1cccnc1`, the z-score was -0.728.
For the compound `COc1ccc(-c2cc(=Nc3ccccc3)c3cc(C)ccc3o2)cc1`, the z-score was -0.277.
As to `CCCCn1c(O)c(C=NC2CCCCC2N)c(=O)[nH]c1=O` (stereo not drawn), the z-score amounted to 0.0998.
As for `O=C(CNC(=O)OCc1ccccc1)NCC(=O)Nc1ccc(Br)cc1C(=O)c1ccccc1`, the z-score was -0.837.
In the case of `Fc1ccccc1CCNCc1cccc2ccccc12`, the z-score was 0.467.
Turning to `OC(Cn1c2ccccc2c2ccccc21)C[n+]1cccc2ccccc21` (stereo not drawn), the z-score stood at 1.62.
With `CCOc1cc(C(=O)N2CCC3(CC2)OCCO3)cc(OCC)c1OCC`, the z-score is -0.0479.
In turn, `Cc1ccc2c(c1)[C@@H]1CN(C)CC[C@@H]1N2C(=O)Nc1cccc(C(F)(F)F)c1` gave a z-score of 1.07.
On to `CCCc1[nH]nc2c1C1(C(=O)N(Cc3ccccc3)c3ccccc31)C(C(=O)OC)=C(N)O2` (stereo not drawn), for which the z-score was 0.288.
In the case of `C=CCn1c(O)c(/C=N/N2CCCCC2c2cccnc2)c(=O)[nH]c1=S` (stereo not drawn), the z-score is -0.317.
`O=C1CC(C(=O)N2CCC3(CC2)OCCO3)CN1CCc1ccccc1` (stereo not drawn) returned a z-score of 1.1.
The compound `O=C(Cc1ccccc1)N1CCN(CC2CC3C=CC2C3)CC1` (stereo not drawn) displayed a z-score of -0.448.
For the compound `CC(C)C12CN3CCN(CC(C3)/C1=N\O)C2`, the z-score was -0.0544.
The compound `CC(=NCCCN1CCOCC1)c1c(O)n(-c2ccccc2C)c(=O)[nH]c1=O` returned a z-score of 0.0995.
For the compound `CC(C)(C)n1cccc1/C=C1\C(=O)NC(=O)N(c2ccccc2)C1=O`, the z-score was -0.117.
`CC(=NCc1ccc2c(c1)OCO2)c1c(O)[nH]c(=O)[nH]c1=O` registered a z-score of -0.135.

For the origin of these results see PubChem BioAssay AID488969 (Vanderbilt High Throughput Screening Facility, 2010).
